Source: PubChem BioAssay AID886 (National Center for Advancing Translational Sciences (NCATS), 2007)
Among all 73,000 compounds or so, about 2,500 (3.4%) were called active. The shares of active, inactive and inconclusive entries below differ from those in the screen. The call rests on the fitted dose curve; in most records, active means well fitted inhibition curve with a large enough effect; inconclusive means small, poorly fitted or top-dose-only effect; inactive means no such curve, though single readings can be large or run the other way. Potencies of inconclusive entries are doubtful fits and often do not repeat. Some structures have more than one record in an assay (separate samples or runs), and their calls can disagree.

Each compound was assayed against 3-hydroxyacyl-CoA dehydrogenase type-2 (Homo sapiens) (UniProt Q99714) (assay: qHTS Assay for Inhibitors of HADH2 (Hydroxyacyl-Coenzyme A Dehydrogenase, Type II)). Conditions: recombinant HADH2, NADH fluorescence, beta-hydroxybutyryl-CoA; activity change, negative = inhibition: at 57.1 µM (top of the series).
Chain of UniProt Q99714 (Q99714 whole entry, looked up): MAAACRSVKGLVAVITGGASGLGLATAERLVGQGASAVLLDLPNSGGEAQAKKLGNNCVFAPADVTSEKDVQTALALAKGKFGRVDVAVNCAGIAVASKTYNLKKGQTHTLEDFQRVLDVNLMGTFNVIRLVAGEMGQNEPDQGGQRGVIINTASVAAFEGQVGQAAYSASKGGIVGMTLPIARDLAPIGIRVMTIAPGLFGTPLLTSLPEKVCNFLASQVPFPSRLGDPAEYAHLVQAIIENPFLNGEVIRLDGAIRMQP
Chain of UniProt Q99714 (Q99714 whole entry, looked up): as above
In short: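 Activity measured as NADH fluorescence gain (360/450 nm), taken as the change between first and last reads of a 4-min kinetic run. Conditions: pH 9.0 Tris buffer, 20 nM E. coli-expressed His-tagged enzyme, 1 mM NAD+, 90 uM beta-hydroxybutyryl-CoA; 15-min compound preincubation.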
Further: nearly all actives have a fitted effect of over 60% in size.
On the % scale 0 is the no-effect control and ±100 the full control effect; potency means the concentration at half of the fitted maximal effect; tags describe the fitted curve by direction and shape.

Row | Compound | Potency | activity change, negative = inhibition
1 | c1csc(CNc2ccnc(-c3ccoc3)n2)c1 | inconclusive: 2.51 µM [inhibitor, full curve, poor fit] | 
2 | COC(=O)c1cc2ccc(OC)c(OC)c2c(=O)s1 |  | inactive: 1.93%
3 | Clc1ccc(Cn2cc(/C=N/n3cnnc3)c3ccccc32)cc1 | inconclusive: 31.6 µM [inhibitor, single point] | 
4 | CCCCOc1ccc(C(=O)NCc2ccccn2)cc1 | inconclusive: 12.6 µM [inhibitor, partial curve, poor fit] | 
5 | CCOC(=O)c1sc(C)c2c1NC(C)(c1cccs1)NC2=O (stereo not given) | inconclusive: 6.31 µM [inhibitor, single point] | 
6 | CCC(=O)/C=C1\Sc2ccc(OC)cc2N1CCO | inconclusive: 39.8 µM [inhibitor, single point] | 
7 | FC(F)(F)c1cccc(N2CCN(Cc3ccoc3)CC2)c1 |  | inactive: 9.32%
8 | Cc1ccc2[nH]c(-c3cccc(N)c3)cc2c1 | active: 3.98 µM | 
9 | COCc1cc(C)nc(N2CCN(c3ccccc3)CC2)c1C#N | inconclusive: 31.6 µM [inhibitor, single point] | 
10 | CCc1ccc(CC)c(S(=O)(=O)Nc2ccc(O)c(C(=O)O)c2)c1 |  | inactive: -28.7%
11 | CCCCCn1c(=O)c(-c2nc3ccccc3c(=O)[nH]2)c(O)c2ccccc21 | inconclusive: 7.94 µM [inhibitor, single point] | 
12 | COc1ccc2[nH]c(O)c(NC(C)=O)c2c1 | inconclusive: 31.6 µM [inhibitor, single point] | 
13 | O=C(O)c1cc2c(ccc3ccccc32)o1 |  | inactive: 33%
14 | CC(=O)NCc1ccc(-c2csc(N)n2)s1 | inconclusive: 39.8 µM [inhibitor, single point] | 
15 | COc1ccc(N2CCN(c3oc(-c4ccc(OC)c(OC)c4)nc3C#N)CC2)cc1 | inconclusive: 39.8 µM [inhibitor, single point] | 
16 | Cc1cc(C(=O)NCc2cc(C)n(C)n2)sc1-c1ccccc1 | inconclusive: 25.1 µM [inhibitor, single point] | 
17 | COc1nc(N)nc2c1ncn2[C@@H]1C[C@H](O)[C@@H](CO)O1 |  | inactive: -0.139% [at 11.4 µM]
18 | CCn1c(SCC(=O)Nc2ccc(OCc3ccccc3)cc2)nnc1-c1ccco1 | inconclusive: 5.01 µM [inhibitor, single point] | 
19 | CC(C)[C@@H](OCc1ccccc1)[C@H](C)/C=N\OC[C@@H](C)[C@H](OCc1ccccc1)C(C)C |  | inactive: 1.49% [at 11.4 µM]
20 | CC(=O)c1ccc(N2CCN(C(=O)CCCn3c(=S)[nH]c4cc5c(cc4c3=O)OCO5)CC2)cc1 | inconclusive: 39.8 µM [inhibitor, single point] | 
21 | NC(=O)COC(=O)c1cc(S(=O)(=O)N2CCOCC2)ccc1N1CCCCC1 |  | inactive: -6.97%
22 | Cc1ccc(-c2csc3nnc(SCC(=O)Nc4cccc(C)n4)n23)cc1 | inconclusive: 31.6 µM [inhibitor, single point] | 
23 | CCOc1ccc2oc(-c3ccccc3)c(C(=O)O)c2c1 | active: 25.1 µM | 
24 | Cc1ccc(NC2c3ncccc3C(=O)N2c2ccccc2C)cc1C (stereo not given) | inconclusive: 2 µM [inhibitor, full curve] | 

Row | Compound | Potency | activity change, negative = inhibition
25 | Cn1ccnc1SCC(=O)c1ccc(Br)cc1 | inconclusive: 25.1 µM [inhibitor, partial curve] | 
26 | COc1ccccc1N1C(=O)N(C(C)=O)C2C1Nc1ccccc1N2C (stereo not given) | inconclusive: 15.8 µM [inhibitor, partial curve] | 
27 | COc1ncc2nc(-c3ccc(F)cc3)c(=O)n(CCC#N)c2n1 | inconclusive: 39.8 µM [inhibitor, single point] | 
28 | COc1cc(-c2cc(OC)c3c(C)oc(C)c3c(=O)c2)ccc1O | inconclusive: 31.6 µM [inhibitor, single point] | 
29 | O=c1onc2n1-c1cc(Br)ccc1OC2 |  | inactive: 7.37%
30 | CCOc1ccc(CCNC(=O)c2oc3c(c2C)-c2[nH]ncc2CC3)cc1OCC |  | inactive: -5.52%
31 | O=C(Nc1ccc2c(c1)nc1n2CCN(C2CCCCC2)C1)c1ccco1 |  | inactive: -6.23%
32 | O=C(CN1c2cccc3cccc(c23)S1(=O)=O)NCc1ccc2c(c1)OCO2 | inconclusive: 6.31 µM [inhibitor, single point] | 
33 | O=C(Nc1cccc2nsnc12)c1cccs1 | active: 25.1 µM | 
34 | O=C(O)c1ccc(CN(c2ccccn2)S(=O)(=O)c2ccccc2)cc1 | inconclusive: 39.8 µM [inhibitor, single point] | 
35 | CN(Cc1ccco1)c1ncncc1-c1cccnc1 | inconclusive: 20 µM [inhibitor, single point] | 
36 | CCCCn1c(SCC(=O)Nc2cc(C)on2)nc2ccccc2c1=O | inconclusive: 31.6 µM [inhibitor, single point] | 
37 | CN(c1ccc(O)cc1)c1nc(-c2ccccc2)cs1 | inconclusive: 1.26 µM [inhibitor, partial curve] | 
38 | O=C(O)CCN1C(=O)C(=C2CCCCCC2)SC1=S | inconclusive: 15.8 µM [inhibitor, partial curve] | 
39 | O=c1nc(C(F)(F)F)nc2ccccn12 | inconclusive: 39.8 µM [inhibitor, single point] | 
40 | COc1ccc(S(=O)(=O)N2CCOCC2)cc1C(=O)Nc1nc2ccccc2s1 | inconclusive: 31.6 µM [inhibitor, single point] | 
41 | CC(C)OC(=O)CSc1nc(N)c(C#N)c(-c2cccs2)c1C#N | inconclusive: 31.6 µM [inhibitor, single point] | 
42 | Cc1ccccc1CS(=O)(=O)c1nnc([C@H](CC(C)C)NC(=O)OC(C)(C)C)o1 | active: 2.51 µM | 
43 | Nc1cccc(-c2nc3ccccc3[nH]2)c1 | active: 15.8 µM | 
44 | Cc1nn(-c2ccccc2)c(N2CCCC2)c1/C=N/n1cnc2scc(-c3ccccc3)c2c1=O | inconclusive: 10 µM [inhibitor, partial curve] | 
45 | COc1cc(NS(=O)(=O)c2ccc(NC(=O)CSC3=NCCS3)cc2)nc(OC)n1 | inconclusive: 31.6 µM [inhibitor, single point] | 
46 | COc1ccc(CCNC(=O)c2ccc3c(=O)n(Cc4ccco4)c(=S)[nH]c3c2)cc1OC | inconclusive: 31.6 µM [inhibitor, single point] | 
47 | CCCCCc1c(O)c2ccccc2[nH]c1=O | inconclusive: 31.6 µM [inhibitor, single point] | 
48 | CCn1c(SC/C=C/c2ccccc2)nnc1-c1cccs1 | inconclusive: 25.1 µM [inhibitor, partial curve] | 

Row | Compound | Potency | activity change, negative = inhibition
49 | CN(C)C(=O)c1ccc(-c2cncnc2NC2CCNCC2)cc1 | inconclusive: 39.8 µM [inhibitor, single point] | 
50 | O=C(c1ccncc1)N1CCC[C@@]2(CCN(Cc3cc(C(F)(F)F)cc(C(F)(F)F)c3)C2)C1 |  | inactive: 28.3%
51 | Cc1cc(=S)[nH]c2ccccc12 | inconclusive: 1.26 µM [inhibitor, full curve] | 
52 | Cc1noc(C)c1-c1nccc(N2CCOCC2)n1 | inconclusive: 25.1 µM [inhibitor, single point] | 
53 | CCOC(=O)C1CCCN(C(=O)c2cncc(Br)c2)C1 (stereo not given) | inconclusive: 0.0316 µM [inhibitor, full curve, poor fit] | 
54 | CN(C)C(=O)c1ccc(-c2ccc3ncnc(NCc4ccccc4)c3c2)cc1 | inconclusive: 39.8 µM [inhibitor, single point] | 
55 | CC(C)c1ccc(/C=C2\C=C(c3ccc4ccccc4c3)OC2=O)cc1 |  | inactive: 8.75% [at 11.4 µM]
56 | Cc1ccc(C(=O)Nc2ccc(S(=O)(=O)O)c3cc(S(=O)(=O)O)cc(S(=O)(=O)O)c23)cc1NC(=O)c1cccc(NC(=O)Nc2cccc(C(=O)Nc3cc(C(=O)Nc4ccc(S(=O)(=O)O)c5cc(S(=O)(=O)O)cc(S(=O)(=O)O)c45)ccc3C)c2)c1 | inconclusive: 31.6 µM [inhibitor, single point] | 
57 | CC12CCC(=O)N1C(C(=O)OCC(=O)Nc1sccc1C#N)CS2 (stereo not given) | inconclusive: 12.6 µM [inhibitor, partial curve] | 
58 | CCSc1ccccc1C(=O)Nc1nncs1 | inconclusive: 31.6 µM [inhibitor, single point] | 
59 | CCn1c(SCC(=O)Nc2cccc(F)c2)nnc1-c1cc2cc(Br)ccc2o1 | inconclusive: 25.1 µM [inhibitor, single point] | 
60 | CS(=O)(=O)N1CCCC(C(=O)NCc2ccco2)C1 (stereo not given) | inconclusive: 15.8 µM [inhibitor, partial curve] | 
61 | CCN(CC)CCN1C(=O)C(O)=C(C(=O)c2ccc(C)o2)C1c1ccccn1 (stereo not given) |  | inactive: 1.41%
62 | c1ccc2c(c1)nnn2Cc1nnc2sc(-c3ccc4c(c3)OCCO4)nn12 | active: 6.31 µM | 
63 | Cc1cc(N2CCOCC2)c2c(N)c(Br)cc(C)c2n1 |  | inactive: 7.74% [at 11.4 µM]
64 | CCOc1ccc(Nc2oc(-c3ccco3)nc2C#N)cc1 | inconclusive: 31.6 µM [inhibitor, single point] | 
65 | CCCCn1c(=O)n(C)c(=O)c2c(C(F)(F)F)cc(-c3ccncc3)nc21 | inconclusive: 39.8 µM [inhibitor, single point] | 
66 | Nc1c(C(=O)OCC2CCCO2)c2nc3ccccc3nc2n1C1CCCCC1 (stereo not given) | active: 31.6 µM | 
67 | COc1ccc(-c2nc(C#N)c(NC(C)C)o2)cc1 | active: 3.98 µM | 
68 | CCCCS(=O)(=O)Nc1ccc2ncn(C)c(=O)c2c1 | inconclusive: 12.6 µM [inhibitor, partial curve] | 
69 | Cc1ccc(C)n1-c1cccc(C(=O)O)c1 | inconclusive: 25.1 µM [inhibitor, single point] | 
70 | O=C(Nc1ccc2c(c1)nc1n2CCSC1)c1ccccc1 | inconclusive: 39.8 µM [inhibitor, single point] | 
